# Source: the supplement of paper PMC12582362
# Where a name gives a salt, the structure may show the parent alone. The campaign covered roughly 1,500 compounds. About 30 (2%) showed activity.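 Rule for the calls: active = robust z-score below -2; a few such results were not called.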 This is one part of the list.
# Tested on: optoTopBP1 Flp-In 293 T-REx (HEK293) cells
# Experiment: light-induced TopBP1 condensate (nuclear foci) count, plate-normalised robust z-score vs non-control wells; higher = more TopBP1 condensates (negative = condensation inhibitor), active = hit call of the paper
# Details: 10 µM; incubation time 2 h
row,Compound,light-induced TopBP1 condensate (z-score)
1,O=C(O)COC(=O)Cc1ccccc1Nc1c(Cl)cccc1Cl [Aceclofenac],inactive: -0.0239
2,Cc1cnc(NC(=O)C2=C(O)c3ccccc3S(=O)(=O)N2C)s1 [Meloxicam],inactive: 0.676
3,Cc1nnc(NS(=O)(=O)c2ccc(N)cc2)s1 [Sulfamethizole],inactive: 0.339
4,CCN1CCC[C@H]1CNC(=O)c1c(OC)ccc(Br)c1OC [Remoxipride Hydrochloride],inactive: 1.06
5,CCN1CCN(c2cc3c(cc2F)c(=O)c(C(=O)O)cn3C2CC2)CC1 [Enrofloxacin],inactive: -0.838
6,Cc1c(C(=O)NN2CCCCC2)nn(-c2ccc(Cl)cc2Cl)c1-c1ccc(Cl)cc1 [Rimonabant],inactive: 0.84
7,COc1cc2c(cc1OC)CC(=O)N(CCCN(C)C[C@H]1Cc3cc(OC)c(OC)cc31)CC2 [Ivabradine hydrochloride],inactive: -0.402
8,C[C@H]1c2cccc(O)c2C(=O)C2=C(O)[C@]3(O)C(=O)C(C(N)=O)=C(O)[C@@H](N(C)C)[C@@H]3[C@@H](O)[C@@H]21 [Doxycycline hydrochloride],inactive: 0.0142
9,Clc1ccc(C(Cn2ccnc2)OCc2ccsc2Cl)c(Cl)c1 (stereo not drawn) [Tioconazole],inactive: 0.517
10,CCCC1C(=O)N2C(N(C)C)=Nc3ccc(C)cc3N2C1=O (stereo not drawn) [Azapropazone],inactive: 0.9
11,"C[C@](N)(Cc1ccc(O)c(O)c1)C(=O)O [Methyldopa (L,-)]",inactive: 1.67
12,c1cnc(N2CCN(Cc3ccc4c(c3)OCO4)CC2)nc1 [Piribedil hydrochloride],inactive: 0.421
13,CCOC(=O)O[C@]1(C(=O)OCCl)CC[C@H]2[C@@H]3CCC4=CC(=O)C=C[C@]4(C)[C@H]3[C@@H](O)C[C@@]21C [Loteprednol etabonate],inactive: -0.488
14,Cc1ccc(NC(=O)c2ccc(CN3CCN(C)CC3)cc2)cc1Nc1nccc(-c2cccnc2)n1 [Imatinib],inactive: -1.22
15,O=C(O)c1cn(C2CC2)c2cc(N3CCNCC3)c(F)cc2c1=O [Ciprofloxacin hydrochloride monohydrate],inactive: 0.0624
16,CCOc1nc2cccc(C(=O)OCc3oc(=O)oc3C)c2n1Cc1ccc(-c2ccccc2-c2noc(=O)[nH]2)cc1 [Azilsartan kamedoxomil],inactive: 1.97
17,C#CCN[C@@H]1CCc2ccccc21 [Rasagiline],inactive: -0.891
18,COc1ccc(-c2cc(=S)ss2)cc1 [Anethole-trithione],inactive: 0.0414
